# The full ranking holds about 33,000 sequences; the median of “E-score (-0.5 to 0.5)” is about -0.043, and the highest 2% start at about 0.37. The list shows a part of the results.
# Target: T1, Upc2 (UniProt Q12151)
# T1 sequence: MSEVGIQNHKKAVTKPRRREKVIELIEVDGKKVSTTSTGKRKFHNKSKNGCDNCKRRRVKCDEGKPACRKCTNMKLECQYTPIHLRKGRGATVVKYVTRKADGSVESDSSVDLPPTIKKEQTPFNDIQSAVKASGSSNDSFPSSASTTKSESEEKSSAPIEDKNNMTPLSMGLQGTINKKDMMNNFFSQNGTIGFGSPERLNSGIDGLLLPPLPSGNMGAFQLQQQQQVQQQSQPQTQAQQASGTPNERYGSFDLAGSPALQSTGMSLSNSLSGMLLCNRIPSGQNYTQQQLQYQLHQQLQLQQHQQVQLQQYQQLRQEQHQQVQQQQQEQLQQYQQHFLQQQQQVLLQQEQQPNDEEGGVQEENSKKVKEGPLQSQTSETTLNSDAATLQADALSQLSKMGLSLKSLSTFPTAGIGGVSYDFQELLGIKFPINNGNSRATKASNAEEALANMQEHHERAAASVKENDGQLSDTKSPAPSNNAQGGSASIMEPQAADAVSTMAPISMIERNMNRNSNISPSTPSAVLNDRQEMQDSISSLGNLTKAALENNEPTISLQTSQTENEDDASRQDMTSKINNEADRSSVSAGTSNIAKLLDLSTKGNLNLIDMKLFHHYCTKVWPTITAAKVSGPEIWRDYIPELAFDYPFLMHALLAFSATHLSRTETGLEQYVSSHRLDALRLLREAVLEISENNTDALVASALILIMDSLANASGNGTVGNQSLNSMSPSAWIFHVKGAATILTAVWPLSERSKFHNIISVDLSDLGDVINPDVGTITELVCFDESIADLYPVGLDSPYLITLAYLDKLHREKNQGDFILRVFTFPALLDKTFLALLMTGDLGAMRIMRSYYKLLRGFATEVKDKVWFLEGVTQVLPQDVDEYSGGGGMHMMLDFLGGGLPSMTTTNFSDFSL
# Assay: PBM E-score (8-mer binding enrichment) (E-score (-0.5 to 0.5)); higher = stronger / more preferred TF binding; most listed sequences are background and not binding sites
# Settings: protein concentration: 200 nM; construct: GST-full length
# Description: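 Universal 'all 10-mer' protein binding microarrays (Agilent AMADID 015681) probed with GST-tagged S. cerevisiae TFs (full-length or DBD) made by in vitro transcription/translation (PURExpress), about 100-200 nM. Bound TF was detected with fluorescent anti-GST. Each ungapped 8-mer (which stands for itself and its reverse complement) is scored by the PBM enrichment score (E-score), a modified Wilcoxon-Mann-Whitney statistic from -0.5 to +0.5, computed with the Universal PBM Analysis Suite. Scale: above 0.35 generally sequence-specific binding.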
row,Sequence,PBM E-score
1,AGTCTTAT,0.00819
2,AGTTTACG,0.348
3,CTACGCAA,0.0175
4,CCTAGCAG,-0.327
5,TAGAAAAA,-0.0194
6,AACTATGA,-0.204
7,GAACGTCC,0.0305
8,CCATCGAC,-0.247
9,ATGGTAAC,0.188
10,AGGATAAC,-0.0421
11,ATCGATAC,0.129
12,AGGCCATA,-0.199
13,ACTTAGTG,-0.168
14,AGTGATGG,-0.165
15,CACCTGGG,-0.341
16,AGCCACGA,-0.17
17,CAACGGCA,-0.0468
18,GGCAGTTA,-0.21
19,GATCGCAA,0.136
20,GCCACGTA,0.204
21,GGGAAATA,-0.187
22,CTATCTGC,-0.16
23,CCCGCAGC,-0.0149
24,GACAGATA,0.0867
25,GTCATTAA,0.0956

row,Sequence,PBM E-score
1,CAGCTACG,0.213
2,CATGCTTC,-0.039
3,CGCGGTCC,-0.0823
4,AAATGAAC,0.118
5,CGAGCAAA,0.162
6,AAACCGCG,0.00306
7,CCGAGATA,0.148
8,GGCCAGAA,-0.124
9,CGCTTCGA,-0.123
10,CAGACGAA,0.178
11,ACAACAAA,0.159
12,CCTCGGCA,0.0819
13,CTCTGGAA,0.0952
14,ACTACTTA,0.0816
15,TCCCGGGA,-0.22
16,GCGAGGAC,-0.102
17,CGACGGAA,0.172
18,GTCACAAC,0.123
19,AGTTCATA,-0.0563
20,CTTGCTTC,-0.154
21,AAGCACCG,-0.075
22,ATAGGGAT,-0.0755
23,CACTGGAC,-0.0285
24,GCGCCTGA,-0.205
25,AACGCGCG,0.265

row,Sequence,PBM E-score
1,CTCCGGAC,-0.0881
2,ACCGAGGC,0.0743
3,GACGGTCA,-0.176
4,GGTCTCGA,0.0263
5,ATGGAAAT,-0.0479
6,GGCAGCGA,-0.275
7,GGGATACA,-0.319
8,CCCCTAGA,-0.327
9,AGAAATCA,-0.0917
10,CCACACAC,-0.148
11,TAACGCAA,0.0914
12,CCGCGTAG,-0.135
13,GCTAAGCC,-0.164
14,GTGCCATA,-0.0165
15,GATGATGC,-0.107
16,CCGTCCAG,0.0277
17,AAGAGTGG,-0.0326
18,GATCCCCC,-0.222
19,GGAACCAA,-0.0542
20,GGATACTA,-0.183
21,ACACAGGC,-0.0476
22,GAACGTTA,0.166
23,CTCCCCAA,-0.145
24,AATTATTA,0.102
25,CTCCTCAA,-0.18

row,Sequence,PBM E-score
1,CGCTAGCC,-0.254
2,GTTCCCAA,0.161
3,CCGATATA,0.12
4,ACGTCTAA,-0.0583
5,CCTTTTCG,0.205
6,ATCTAAAG,-0.117
7,AGTTGCCG,-0.0348
8,CCGTTCAG,0.365
9,CTTAGGCC,-0.221
10,CACGGTAA,-0.0737
11,CATTACGG,-0.0286
12,GGTCTAGA,0.188
13,GCGCATAC,0.205
14,CGCAACAC,-0.0123
15,GCGCAACC,-0.187
16,CTCGACAC,-0.0456
17,CTATTGGA,-0.13
18,CTAGGGAA,-0.179
19,CCCAGTTA,-0.116
20,CACATGTA,-0.0925
21,ACCGCCCG,-0.0398
22,CTGTATTA,0.0384
23,AGTCTCAT,-0.177
24,CGTTGGTA,0.122
25,GACTTTGA,0.112

row,Sequence,PBM E-score
1,CCCAGTGA,-0.231
2,ATAATATC,0.0315
3,AAGTCGGG,-0.00586
4,TATTAGCA,0.00925
5,CCGTAGGC,-0.269
6,GACAGCCC,-0.093
7,ACATGCAC,-0.0716
8,GGATAGTA,0.0498
9,CTGATTAC,0.0106
10,GTCACCGA,-0.0815
11,GCCAAATA,0.123
12,GTGGTGCA,-0.128
13,GCCGATCC,0.0205
14,CCATCTGC,-0.00423
15,AACCAGAC,0.0359
16,GGTCGATA,-0.00733
17,CGACTCCA,0.0303
18,GAGATGAC,-0.206
19,CCCCATCG,0.0968
20,CGGACATA,0.0482
21,ATACGGCC,0.416
22,AAACGCAA,0.232
23,GTGCTCGA,0.0349
24,GTGTGGTA,0.0441
25,CGCAATAC,0.102

row,Sequence,PBM E-score
1,GAGCATCC,-0.144
2,AGTGCAAC,-0.0263
3,CAGCTTGA,-0.103
4,AGTCTAAG,-0.0185
5,GCAGTTCC,-0.184
6,AGTACATA,-0.0422
7,ATTCTCAA,-0.0926
8,AGGTTAAA,-0.0168
9,CGAGGGCG,0.109
10,ACACAGAC,-0.129
11,ATATATGG,-0.112
12,ACCATATC,0.104
13,AAAAAGCT,-0.112
14,CTCACTAC,0.0476
15,AATTAGAG,-0.0424
16,CCTCGTCA,0.108
17,ACTCAGTG,-0.26
18,CTAGTTGA,-0.228
19,CCCTGTAA,-0.017
20,ACGATTCA,0.328
21,AGGGTAAT,-0.138
22,GGCCGACC,-0.136
23,TATGCAAA,0.0871
24,AAATGCTA,-0.0542
25,AACGGGCA,0.246

row,Sequence,PBM E-score
1,AGAATATA,0.12
2,AATGCATC,-0.0637
3,TCCTCAAA,-0.24
4,CGCTCCCC,-0.0176
5,ACAGGTTG,-0.0143
6,CCGTTTCA,0.159
7,GATTGGAA,-0.102
8,GATACTAA,0.00269
9,AAGTCATA,-0.0313
10,GTCTCACA,-0.0791
11,AGAGGGGA,-0.229
12,AACCGGCG,0.151
13,ATGGAAAG,-0.0331
14,GCAACCGC,-0.0336
15,ACGCAAGA,0.0175
16,CTCTACGA,0.409
17,TACATAGA,-0.183
18,AGCCTCCG,-0.121
19,CCACGCTA,-0.0927
20,CAGTGTCA,-0.179
21,ACGGATAA,0.12
22,CCACTTCC,-0.0858

# Source: the supplement of paper PMC3334620
